Reference: article PMC4748122
No constants are given. Whether binding was seen depends on the method and setting. In cells and extracts the contact can be indirect. Some binding calls cover weakened binding; strength is not graded here. For some assays here: Sequences can lack the tags named with a protein.

Protein sequences, listed by entry. Tags and fused reporters are not part of them. Lines headed by an entry give the natural chain unless they say otherwise; changes in a name come on top.
UniProt Q9ULH1: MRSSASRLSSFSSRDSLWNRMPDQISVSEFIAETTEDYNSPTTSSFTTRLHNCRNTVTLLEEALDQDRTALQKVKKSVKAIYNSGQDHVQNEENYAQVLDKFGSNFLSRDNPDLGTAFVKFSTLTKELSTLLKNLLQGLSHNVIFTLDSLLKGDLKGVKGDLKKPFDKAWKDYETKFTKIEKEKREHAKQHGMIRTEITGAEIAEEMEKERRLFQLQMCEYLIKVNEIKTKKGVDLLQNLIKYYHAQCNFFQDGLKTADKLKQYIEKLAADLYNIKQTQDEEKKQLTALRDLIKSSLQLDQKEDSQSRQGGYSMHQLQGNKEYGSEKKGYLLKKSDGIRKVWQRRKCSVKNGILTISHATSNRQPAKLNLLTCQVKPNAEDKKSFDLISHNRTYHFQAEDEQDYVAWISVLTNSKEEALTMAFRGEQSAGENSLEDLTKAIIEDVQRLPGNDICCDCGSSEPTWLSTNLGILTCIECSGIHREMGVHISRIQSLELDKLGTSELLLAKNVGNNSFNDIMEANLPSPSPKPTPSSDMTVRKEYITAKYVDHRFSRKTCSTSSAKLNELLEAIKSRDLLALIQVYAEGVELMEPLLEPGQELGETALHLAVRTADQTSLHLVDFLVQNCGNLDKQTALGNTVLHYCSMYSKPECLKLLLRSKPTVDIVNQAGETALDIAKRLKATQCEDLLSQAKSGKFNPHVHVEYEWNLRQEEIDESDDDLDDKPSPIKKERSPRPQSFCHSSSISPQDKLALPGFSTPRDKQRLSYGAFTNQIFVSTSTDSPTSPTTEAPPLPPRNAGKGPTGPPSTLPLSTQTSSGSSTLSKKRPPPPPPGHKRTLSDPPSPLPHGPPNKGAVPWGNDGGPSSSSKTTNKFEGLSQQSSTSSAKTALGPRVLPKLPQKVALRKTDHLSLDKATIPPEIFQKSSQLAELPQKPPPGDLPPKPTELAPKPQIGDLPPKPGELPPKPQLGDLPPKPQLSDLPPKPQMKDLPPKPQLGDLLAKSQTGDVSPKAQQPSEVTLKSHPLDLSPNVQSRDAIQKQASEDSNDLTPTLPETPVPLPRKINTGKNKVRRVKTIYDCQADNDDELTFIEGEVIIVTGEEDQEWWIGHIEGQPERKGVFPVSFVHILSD
UniProt Q9HCM4: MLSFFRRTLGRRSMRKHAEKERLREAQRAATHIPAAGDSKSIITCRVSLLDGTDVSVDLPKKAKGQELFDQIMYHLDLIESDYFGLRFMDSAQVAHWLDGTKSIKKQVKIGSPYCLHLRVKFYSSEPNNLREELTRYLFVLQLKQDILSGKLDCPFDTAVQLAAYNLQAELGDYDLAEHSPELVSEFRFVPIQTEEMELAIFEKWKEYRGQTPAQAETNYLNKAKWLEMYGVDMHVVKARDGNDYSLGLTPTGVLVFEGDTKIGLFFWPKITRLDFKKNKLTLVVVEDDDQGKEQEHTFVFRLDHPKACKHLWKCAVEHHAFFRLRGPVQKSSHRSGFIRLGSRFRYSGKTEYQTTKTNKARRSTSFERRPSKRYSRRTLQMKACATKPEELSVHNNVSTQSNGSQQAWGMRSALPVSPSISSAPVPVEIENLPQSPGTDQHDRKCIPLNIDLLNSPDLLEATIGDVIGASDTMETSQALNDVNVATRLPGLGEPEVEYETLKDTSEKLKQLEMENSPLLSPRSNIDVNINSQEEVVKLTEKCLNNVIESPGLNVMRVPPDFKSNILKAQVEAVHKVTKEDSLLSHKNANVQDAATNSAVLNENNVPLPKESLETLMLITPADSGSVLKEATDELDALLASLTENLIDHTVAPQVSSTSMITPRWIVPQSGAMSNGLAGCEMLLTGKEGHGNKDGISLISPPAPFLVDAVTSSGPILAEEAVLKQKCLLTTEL
UniProt Q03113: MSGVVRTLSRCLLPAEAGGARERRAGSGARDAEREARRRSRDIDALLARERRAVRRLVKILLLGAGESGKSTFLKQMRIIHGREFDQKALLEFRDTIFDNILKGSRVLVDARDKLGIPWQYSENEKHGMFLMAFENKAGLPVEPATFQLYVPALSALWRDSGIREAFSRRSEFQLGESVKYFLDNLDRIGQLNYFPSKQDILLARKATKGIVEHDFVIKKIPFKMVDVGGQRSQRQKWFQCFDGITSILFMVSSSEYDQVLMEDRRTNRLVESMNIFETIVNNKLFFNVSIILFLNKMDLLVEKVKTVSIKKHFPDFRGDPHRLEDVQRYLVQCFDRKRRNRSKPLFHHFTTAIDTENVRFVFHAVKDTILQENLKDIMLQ
UniProt Q14344: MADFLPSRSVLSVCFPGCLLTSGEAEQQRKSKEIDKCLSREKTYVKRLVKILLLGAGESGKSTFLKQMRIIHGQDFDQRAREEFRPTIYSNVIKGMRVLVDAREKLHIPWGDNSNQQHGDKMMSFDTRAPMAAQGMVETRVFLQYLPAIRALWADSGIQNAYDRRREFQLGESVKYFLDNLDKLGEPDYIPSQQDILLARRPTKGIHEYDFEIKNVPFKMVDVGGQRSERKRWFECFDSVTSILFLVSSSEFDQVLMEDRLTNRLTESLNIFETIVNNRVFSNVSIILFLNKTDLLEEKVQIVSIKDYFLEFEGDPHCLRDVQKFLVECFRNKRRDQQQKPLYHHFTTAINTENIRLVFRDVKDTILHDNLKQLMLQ
UniProt P04899: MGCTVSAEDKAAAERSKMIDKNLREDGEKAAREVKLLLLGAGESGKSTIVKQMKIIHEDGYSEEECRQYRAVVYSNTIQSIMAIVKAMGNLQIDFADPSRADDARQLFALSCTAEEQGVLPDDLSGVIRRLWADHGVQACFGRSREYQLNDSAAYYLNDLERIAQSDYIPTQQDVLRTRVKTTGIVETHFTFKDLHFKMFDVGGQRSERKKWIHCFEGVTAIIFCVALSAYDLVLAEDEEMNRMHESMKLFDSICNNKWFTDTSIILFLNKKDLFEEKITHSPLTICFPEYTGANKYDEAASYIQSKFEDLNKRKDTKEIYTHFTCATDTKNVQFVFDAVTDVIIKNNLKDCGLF
UniProt P50148: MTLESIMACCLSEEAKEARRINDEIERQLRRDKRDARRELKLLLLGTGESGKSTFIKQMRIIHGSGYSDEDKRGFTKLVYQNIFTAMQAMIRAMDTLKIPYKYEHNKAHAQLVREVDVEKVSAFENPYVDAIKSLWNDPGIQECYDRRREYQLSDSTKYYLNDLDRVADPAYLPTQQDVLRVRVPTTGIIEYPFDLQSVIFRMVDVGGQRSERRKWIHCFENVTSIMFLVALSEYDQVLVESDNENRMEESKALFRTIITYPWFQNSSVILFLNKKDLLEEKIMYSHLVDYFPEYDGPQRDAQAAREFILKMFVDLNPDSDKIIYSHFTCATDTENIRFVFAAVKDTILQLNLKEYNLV
UniProt P62873: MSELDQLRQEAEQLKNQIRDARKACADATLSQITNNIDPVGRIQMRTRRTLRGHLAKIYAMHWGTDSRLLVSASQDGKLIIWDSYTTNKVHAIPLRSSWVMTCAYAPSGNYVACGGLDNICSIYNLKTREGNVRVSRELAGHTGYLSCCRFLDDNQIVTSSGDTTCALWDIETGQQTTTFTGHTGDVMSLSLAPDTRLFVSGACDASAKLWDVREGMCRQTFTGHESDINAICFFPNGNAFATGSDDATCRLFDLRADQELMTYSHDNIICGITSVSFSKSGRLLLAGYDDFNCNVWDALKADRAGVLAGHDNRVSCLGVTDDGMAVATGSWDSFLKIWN

Columns and labels:
[1] = target: AMAP1, endogenous in 786-O cells (human (endogenous in 786-O)) (UniProt Q9ULH1); test: co-IP; anti-AMAP1 mouse monoclonal antibody with Protein A-Sepharose, lysate of LPA-stimulated 786-O cells in NP-40 buffer, 1 h at 4 °C; endogenous proteins; immunoblotting
[2] = target: T1, HA-EFA6B, full length, expressed in 786-O cells instead of the endogenous EFA6B (human) (UniProt Q8NDX1); test: co-IP; anti-HA immunoprecipitation (Protein G-Sepharose, 1 h at 4 °C) from 750 μg lysate of 786-O cells expressing HA-EFA6B or its mutant instead of endogenous EFA6B; cells stimulated with LPA for 5 min or left untreated; NP-40 buffer; endogenous G-proteins detected by immunoblotting
T1 sequence: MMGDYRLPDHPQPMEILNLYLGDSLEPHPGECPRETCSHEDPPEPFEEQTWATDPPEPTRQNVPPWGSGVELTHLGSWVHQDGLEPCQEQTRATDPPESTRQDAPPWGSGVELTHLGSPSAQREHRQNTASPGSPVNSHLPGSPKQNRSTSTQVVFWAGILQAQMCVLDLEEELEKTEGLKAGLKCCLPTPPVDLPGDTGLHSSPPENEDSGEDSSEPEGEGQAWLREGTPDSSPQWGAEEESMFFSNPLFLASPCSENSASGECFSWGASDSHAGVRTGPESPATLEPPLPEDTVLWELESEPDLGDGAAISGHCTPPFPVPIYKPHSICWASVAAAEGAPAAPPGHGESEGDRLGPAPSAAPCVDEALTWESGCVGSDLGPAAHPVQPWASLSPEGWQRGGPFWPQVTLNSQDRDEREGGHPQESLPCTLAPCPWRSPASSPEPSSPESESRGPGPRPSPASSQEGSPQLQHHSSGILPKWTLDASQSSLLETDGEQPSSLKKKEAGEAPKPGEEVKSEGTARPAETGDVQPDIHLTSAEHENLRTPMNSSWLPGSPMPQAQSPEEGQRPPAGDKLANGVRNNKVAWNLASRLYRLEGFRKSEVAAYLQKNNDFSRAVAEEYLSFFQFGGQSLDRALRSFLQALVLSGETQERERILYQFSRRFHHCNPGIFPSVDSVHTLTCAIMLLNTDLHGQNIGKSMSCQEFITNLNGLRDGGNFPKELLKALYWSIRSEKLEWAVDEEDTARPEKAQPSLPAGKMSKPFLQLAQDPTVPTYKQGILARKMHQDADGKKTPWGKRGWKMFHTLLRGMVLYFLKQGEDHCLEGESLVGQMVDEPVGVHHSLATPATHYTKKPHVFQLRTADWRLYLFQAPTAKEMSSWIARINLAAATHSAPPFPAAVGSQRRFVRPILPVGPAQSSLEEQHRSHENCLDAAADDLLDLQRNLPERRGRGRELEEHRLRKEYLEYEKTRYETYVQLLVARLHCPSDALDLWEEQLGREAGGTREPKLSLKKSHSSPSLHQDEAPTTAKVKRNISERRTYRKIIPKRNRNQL

[3] = target: T2, HA-EFA6B RGS-like domain-deleted mutant (Δ121–324aa), expressed in 786-O cells in which endogenous EFA6B was silenced (human) (UniProt Q8NDX1); test: as above
T2 sequence: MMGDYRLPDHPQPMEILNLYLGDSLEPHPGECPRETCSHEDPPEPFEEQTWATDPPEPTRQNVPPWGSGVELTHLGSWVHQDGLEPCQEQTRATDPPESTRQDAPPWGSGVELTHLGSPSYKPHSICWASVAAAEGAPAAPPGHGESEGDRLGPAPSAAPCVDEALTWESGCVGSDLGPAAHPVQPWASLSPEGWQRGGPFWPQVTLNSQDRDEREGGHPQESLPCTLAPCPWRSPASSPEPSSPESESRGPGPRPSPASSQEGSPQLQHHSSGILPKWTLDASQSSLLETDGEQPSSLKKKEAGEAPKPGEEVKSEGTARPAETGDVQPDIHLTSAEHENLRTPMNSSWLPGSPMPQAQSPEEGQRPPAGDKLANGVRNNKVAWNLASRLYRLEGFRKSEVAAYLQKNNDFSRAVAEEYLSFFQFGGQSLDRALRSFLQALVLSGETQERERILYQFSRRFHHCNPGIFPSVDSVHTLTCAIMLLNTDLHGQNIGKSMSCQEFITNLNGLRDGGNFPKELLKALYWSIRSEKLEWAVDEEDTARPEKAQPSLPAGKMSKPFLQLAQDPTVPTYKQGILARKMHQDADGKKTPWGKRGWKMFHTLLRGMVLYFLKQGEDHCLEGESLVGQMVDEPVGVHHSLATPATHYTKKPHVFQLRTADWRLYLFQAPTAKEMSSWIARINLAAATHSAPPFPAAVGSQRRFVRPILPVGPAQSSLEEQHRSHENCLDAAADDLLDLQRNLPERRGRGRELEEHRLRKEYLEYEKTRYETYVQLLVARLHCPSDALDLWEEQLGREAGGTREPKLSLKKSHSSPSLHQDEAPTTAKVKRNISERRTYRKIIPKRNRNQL

[4] = target: T3, EFA6B, endogenous in 786-O cells (human (endogenous in 786-O)) (UniProt Q8NDX1); test: co-IP; anti-EFA6B mouse polyclonal antibody with Protein G-Sepharose, 5 mg lysate of LPA-stimulated 786-O cells in NP-40 buffer, 1 h at 4 °C; endogenous proteins; immunoblotting
T3 sequence: T1 sequence

[5] = target: T4, HA-EFA6B, full length, expressed in 293T cells (human) (UniProt Q8NDX1); test: co-IP; 293T cells co-transfected with HA-tagged EFA6 family member or EFA6B mutant and Gα12QL, Gα13QL, GαqQL or Gα12GA; lysed after 36 h in NP-40 buffer; anti-HA immunoprecipitation and immunoblotting
T4 sequence: T1 sequence

binding [2]	binding [4]	Substance	also measured
		EPB41L5, endogenous in 786-O cells (from UniProt Q9HCM4 1-733)	binding [1]: binds
binds	binds	Gα12, endogenous in 786-O cells (from UniProt Q03113 1-381)	binding [3]: no binding
		Gα12G230A, dominant-negative (GTP-binding-defective) mutant of Gα12 (from UniProt Q03113 1-381)	binding [5]: no binding
no binding	no binding	Gα13, endogenous in 786-O cells (from UniProt Q14344 1-377)	
no binding		Gαi2, endogenous in 786-O cells (from UniProt P04899 1-355)	
no binding	no binding	Gαq, endogenous in 786-O cells (from UniProt P50148 1-359)	
no binding		Gβ1, endogenous in 786-O cells (from UniProt P62873 1-340)	
